No constants are given. Whether binding was seen depends on the method and setting. In cells and extracts the contact can be indirect. Some entries that bind do so weakly or less than the wild type.

Chains of the proteins cited; added tags and fusions are not shown. Residues count along the entry.
UniProt Q92841: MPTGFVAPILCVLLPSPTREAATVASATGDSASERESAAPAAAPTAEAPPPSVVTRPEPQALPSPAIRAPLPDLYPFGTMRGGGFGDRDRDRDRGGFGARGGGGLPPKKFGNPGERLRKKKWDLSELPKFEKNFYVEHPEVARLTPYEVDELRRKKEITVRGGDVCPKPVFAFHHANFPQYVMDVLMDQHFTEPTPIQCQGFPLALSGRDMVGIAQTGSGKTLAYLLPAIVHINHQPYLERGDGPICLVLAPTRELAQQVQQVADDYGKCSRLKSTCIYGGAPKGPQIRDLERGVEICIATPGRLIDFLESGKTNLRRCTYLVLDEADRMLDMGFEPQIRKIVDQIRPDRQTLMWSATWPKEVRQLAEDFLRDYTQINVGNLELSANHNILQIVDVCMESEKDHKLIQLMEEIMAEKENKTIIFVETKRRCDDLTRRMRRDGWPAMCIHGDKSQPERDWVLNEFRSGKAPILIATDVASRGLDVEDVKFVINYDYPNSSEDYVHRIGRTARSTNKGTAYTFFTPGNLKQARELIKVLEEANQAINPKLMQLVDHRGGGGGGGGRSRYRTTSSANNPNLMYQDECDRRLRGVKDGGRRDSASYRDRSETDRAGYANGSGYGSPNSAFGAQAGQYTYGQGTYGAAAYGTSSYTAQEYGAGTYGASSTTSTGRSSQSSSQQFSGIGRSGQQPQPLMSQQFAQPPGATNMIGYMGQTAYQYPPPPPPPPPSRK
UniProt P07996, residues 19-1170: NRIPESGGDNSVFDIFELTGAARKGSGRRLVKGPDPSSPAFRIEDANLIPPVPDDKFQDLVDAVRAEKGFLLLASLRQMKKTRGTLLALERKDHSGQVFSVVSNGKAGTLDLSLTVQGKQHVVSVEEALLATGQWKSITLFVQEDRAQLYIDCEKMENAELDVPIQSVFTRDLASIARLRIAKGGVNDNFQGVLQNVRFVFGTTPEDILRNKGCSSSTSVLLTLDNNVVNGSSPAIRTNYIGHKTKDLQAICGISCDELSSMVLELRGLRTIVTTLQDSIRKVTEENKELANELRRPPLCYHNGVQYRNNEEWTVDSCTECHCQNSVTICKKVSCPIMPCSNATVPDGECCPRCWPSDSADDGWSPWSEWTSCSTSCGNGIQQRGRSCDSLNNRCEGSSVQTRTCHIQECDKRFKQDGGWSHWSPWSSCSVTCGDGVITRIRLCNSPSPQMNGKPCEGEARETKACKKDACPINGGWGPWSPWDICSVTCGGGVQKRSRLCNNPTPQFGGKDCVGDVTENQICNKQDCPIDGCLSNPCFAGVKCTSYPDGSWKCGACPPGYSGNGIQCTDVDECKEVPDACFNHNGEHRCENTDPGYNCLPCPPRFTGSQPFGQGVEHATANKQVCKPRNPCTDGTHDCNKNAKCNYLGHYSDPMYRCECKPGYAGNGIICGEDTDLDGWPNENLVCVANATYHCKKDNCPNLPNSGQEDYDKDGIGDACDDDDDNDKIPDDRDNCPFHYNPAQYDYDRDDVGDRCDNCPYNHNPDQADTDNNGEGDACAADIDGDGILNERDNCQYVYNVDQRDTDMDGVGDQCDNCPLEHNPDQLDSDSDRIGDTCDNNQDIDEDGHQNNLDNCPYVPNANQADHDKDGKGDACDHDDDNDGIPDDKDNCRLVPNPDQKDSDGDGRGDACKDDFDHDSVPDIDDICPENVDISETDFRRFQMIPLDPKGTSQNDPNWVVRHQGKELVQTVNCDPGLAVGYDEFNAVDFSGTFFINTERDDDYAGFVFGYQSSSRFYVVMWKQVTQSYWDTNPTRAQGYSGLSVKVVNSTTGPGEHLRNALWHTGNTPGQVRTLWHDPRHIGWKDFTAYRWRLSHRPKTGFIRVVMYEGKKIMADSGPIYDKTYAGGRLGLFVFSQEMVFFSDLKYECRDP

In experiment [1] the target is DEAD-box RNA helicase 17 (DDX17) (human (endogenous in HepG2-NTCP)) (UniProt Q92841). Description: co-IP; reciprocal co-IP of DDX17 and its four candidate partners (Figure 5C); RIPA lysate, 600 ug total protein, primary antibody overnight at 4°C, protein A/G magnetic beads, Western blot; cells not given. For orientation: A western blot detects proteins with antibodies after separation by electrophoresis.

The target is the same in experiment [2]. As to the kind of experiment: co-IP; co-IP with anti-DDX17 antibody in HBV-infected HepG2-NTCP cells transfected with a plasmid expressing ZWINT (Figure 5D); RIPA lysate, protein A/G magnetic beads, Western blot.

For THBS1 (from UniProt P07996 19-1170), the binding result in experiment [1] is recorded as “no binding”.

B1: ZW10 interacting kinetochore protein (ZWINT) (protein, UniProt O95229 1-277)
chain: MEAAETEAEAAALEVLAEVAGILEPVGLQEEAELPAKILVEFVVDSQKKDKLLCSQLQVADFLQNILAQEDTAKGLDPLASEDTSRQKAIAAKEQWKELKATYREHVEAIKIGLTKALTQMEEAQRKRTQLREAFEQLQAKKQMAMEKRRAVQNQWQLQQEKHLQHLAEVSAEVRERKTGTQQELDRVFQKLGNLKQQAEQERDKLQRYQTFLQLLYTLQGKLLFPEAEAEAENLPDDKPQQPTRPQEQSTGDTMGRDPGVSFKAVGLQPAGDVNLP
Turning to B1, the binding entry in experiment [1] is recorded as “binds”.

B2: ZW10 interacting kinetochore protein (ZWINT), expressed from a plasmid (protein, UniProt O95229 1-277)
chain: B1 chain
For B2, the binding result in experiment [2] is “binds”.

B3: KIF23 (protein, UniProt Q02241 1-960)
chain: MKSARAKTPRKPTVKKGSQTNLKDPVGVYCRVRPLGFPDQECCIEVINNTTVQLHTPEGYRLNRNGDYKETQYSFKQVFGTHTTQKELFDVVANPLVNDLIHGKNGLLFTYGVTGSGKTHTMTGSPGEGGLLPRCLDMIFNSIGSFQAKRYVFKSNDRNSMDIQCEVDALLERQKREAMPNPKTSSSKRQVDPEFADMITVQEFCKAEEVDEDSVYGVFVSYIEIYNNYIYDLLEEVPFDPIKPKPPQSKLLREDKNHNMYVAGCTEVEVKSTEEAFEVFWRGQKKRRIANTHLNRESSRSHSVFNIKLVQAPLDADGDNVLQEKEQITISQLSLVDLAGSERTNRTRAEGNRLREAGNINQSLMTLRTCMDVLRENQMYGTNKMVPYRDSKLTHLFKNYFDGEGKVRMIVCVNPKAEDYEENLQVMRFAEVTQEVEVARPVDKAICGLTPGRRYRNQPRGPVGNEPLVTDVVLQSFPPLPSCEILDINDEQTLPRLIEALEKRHNLRQMMIDEFNKQSNAFKALLQEFDNAVLSKENHMQGKLNEKEKMISGQKLEIERLEKKNKTLEYKIEILEKTTTIYEEDKRNLQQELETQNQKLQRQFSDKRRLEARLQGMVTETTMKWEKECERRVAAKQLEMQNKLWVKDEKLKQLKAIVTEPKTEKPERPSRERDREKVTQRSVSPSPVPLSSNYIAQISNGQQLMSQPQLHRRSNSCSSISVASCISEWEQKIPTYNTPLKVTSIARRRQQEPGQSKTCIVSDRRRGMYWTEGREVVPTFRNEIEIEEDHCGRLLFQPDQNAPPIRLRHRRSRSAGDRWVDHKPASNMQTETVMQPHVPHAITVSVANEKALAKCEKYMLTHQELASDGEIETKLIKGDIYKTRGGGQSVQFTDIETLKQESPNGSRKRRSSTVAPAQPDGAESEWTDVETRCSVAVEMRAGSQLGPGYQHHAQPKRKKP
Take B3: in experiment [1], the binding result is “no binding”.

B4: SLA2 (protein, UniProt Q9H6Q3 1-261)
chain: MGSLPSRRKSLPSPSLSSSVQGQGPVTMEAERSKATAVALGSFPAGGPAELSLRLGEPLTIVSEDGDWWTVLSEVSGREYNIPSVHVAKVSHGWLYEGLSREKAEELLLLPGNPGGAFLIRESQTRRGSYSLSVRLSRPASWDRIRHYRIHCLDNGWLYISPRLTFPSLQALVDHYSELADDICCLLKEPCVLQRAGPLPGKDIPLPVTVQRTPLNWKELDSSLLFSEAATGEESLLSEGLRESLSFYISLNDEAVSLDDA
For the molecule B4, the binding result in experiment [1] was “no binding”.
